Reference: the supplement of paper PMC8728848
The list shows a part of the results.

What was measured:
Experiment in all cases: glycan array binding signal (z-score within array); higher = stronger binding
Conditions in all cases: glycan notation: IUPAC condensed, linker removed
[1] = target: Gal(b1-4)GlcNAc(b1-3)Gal(b1-4)GlcNAc(b1-2)Man(a1-3)[Gal(b1-4)GlcNAc(b1-3)Gal(b1-4)GlcNAc(b1-2)Man(a1-6)]Man(b1-4)GlcNAc(b1-4)[Fuc(a1-6)]GlcNAc
Summary of the method: (§1)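 Negative Z-scores can be read as non-binding. The Z-score is calculated within each array and then averaged across arrays of one protein sequence at different concentrations or buffers and across linkers. Arrays, 3228 in all, were curated from the Consortium for Functional Glycomics database and kept only where the protein sequence was available.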

[2] = target: Gal(b1-4)GlcNAc(b1-3)Gal(b1-4)GlcNAc(b1-2)[Gal(b1-4)GlcNAc(b1-3)Gal(b1-4)GlcNAc(b1-6)]Man(a1-6)[Gal(b1-4)GlcNAc(b1-3)Gal(b1-4)GlcNAc(b1-2)Man(a1-3)]Man(b1-4)GlcNAc(b1-4)GlcNAc
Summary of the method: as §1

[3] = target: Gal(b1-4)GlcNAc(b1-3)Gal(b1-4)GlcNAc(b1-2)[Gal(b1-4)GlcNAc(b1-3)Gal(b1-4)GlcNAc(b1-6)]Man(a1-6)[Gal(b1-4)GlcNAc(b1-3)Gal(b1-4)GlcNAc(b1-2)Man(a1-3)]Man(b1-4)GlcNAc(b1-4)[Fuc(a1-6)]GlcNAc
Summary of the method: as §1

[4] = target: Gal(b1-4)GlcNAc(b1-3)Gal(b1-4)GlcNAc(b1-3)Gal(b1-4)GlcNAc
Summary of the method: as §1

[5] = target: Gal(b1-4)GlcNAc(b1-3)Gal(b1-4)GlcNAc(b1-3)Gal(b1-4)GlcNAc(b1-2)Man(a1-3)[Gal(b1-4)GlcNAc(b1-3)Gal(b1-4)GlcNAc(b1-3)Gal(b1-4)GlcNAc(b1-2)Man(a1-6)]Man(b1-4)GlcNAc(b1-4)GlcNAc
Summary of the method: as §1

[6] = target: Gal(b1-4)GlcNAc(b1-3)Gal(b1-4)GlcNAc(b1-3)Gal(b1-4)GlcNAc(b1-2)Man(a1-3)[Gal(b1-4)GlcNAc(b1-3)Gal(b1-4)GlcNAc(b1-3)Gal(b1-4)GlcNAc(b1-2)Man(a1-6)]Man(b1-4)GlcNAc(b1-4)[Fuc(a1-6)]GlcNAc
Summary of the method: as §1

[7] = target: Gal(b1-4)GlcNAc(b1-3)Gal(b1-4)GlcNAc(b1-3)Gal(b1-4)GlcNAc(b1-2)[Gal(b1-4)GlcNAc(b1-3)Gal(b1-4)GlcNAc(b1-3)Gal(b1-4)GlcNAc(b1-6)]Man(a1-6)[Gal(b1-4)GlcNAc(b1-3)Gal(b1-4)GlcNAc(b1-3)Gal(b1-4)GlcNAc(b1-2)Man(a1-3)]Man(b1-4)GlcNAc(b1-4)[Fuc(a1-6)]GlcNAc
Summary of the method: as §1

[8] = target: Gal(b1-4)GlcNAc(b1-3)Gal(b1-4)GlcNAc(b1-3)Gal(b1-4)GlcNAc(b1-3)Gal(b1-4)GlcNAc(b1-2)Man(a1-3)[Gal(b1-4)GlcNAc(b1-3)Gal(b1-4)GlcNAc(b1-3)Gal(b1-4)GlcNAc(b1-3)Gal(b1-4)GlcNAc(b1-2)Man(a1-6)]Man(b1-4)GlcNAc(b1-4)GlcNAc
Summary of the method: as §1

[9] = target: Gal(b1-4)GlcNAc(b1-3)Gal(b1-4)GlcNAc(b1-3)Gal(b1-4)GlcNAc(b1-3)Gal(b1-4)GlcNAc(b1-2)Man(a1-3)[Gal(b1-4)GlcNAc(b1-3)Gal(b1-4)GlcNAc(b1-3)Gal(b1-4)GlcNAc(b1-3)Gal(b1-4)GlcNAc(b1-2)Man(a1-6)]Man(b1-4)GlcNAc(b1-4)[Fuc(a1-6)]GlcNAc
Summary of the method: as §1

[10] = target: Gal(b1-4)GlcNAc(b1-3)Gal(b1-4)GlcNAc(b1-3)Gal(b1-4)GlcNAc(b1-3)Gal(b1-4)GlcNAc(b1-2)[Gal(b1-4)GlcNAc(b1-3)Gal(b1-4)GlcNAc(b1-3)Gal(b1-4)GlcNAc(b1-3)Gal(b1-4)GlcNAc(b1-6)]Man(a1-6)[Gal(b1-4)GlcNAc(b1-3)Gal(b1-4)GlcNAc(b1-3)Gal(b1-4)GlcNAc(b1-3)Gal(b1-4)GlcNAc(b1-2)Man(a1-3)]Man(b1-4)GlcNAc(b1-4)[Fuc(a1-6)]GlcNAc
Summary of the method: as §1

[11] = target: Gal(b1-4)GlcNAc(b1-3)Gal(b1-4)GlcNAc(b1-3)Gal(b1-4)GlcNAc(b1-3)Gal(b1-4)GlcNAc(b1-3)Gal(b1-4)GlcNAc(b1-2)Man(a1-3)[Gal(b1-4)GlcNAc(b1-3)Gal(b1-4)GlcNAc(b1-3)Gal(b1-4)GlcNAc(b1-3)Gal(b1-4)GlcNAc(b1-3)Gal(b1-4)GlcNAc(b1-2)Man(a1-6)]Man(b1-4)GlcNAc(b1-4)GlcNAc
Summary of the method: as §1

[12] = target: Gal(b1-4)GlcNAc(b1-3)Gal(b1-4)GlcNAc(b1-3)Gal(b1-4)GlcNAc(b1-3)Gal(b1-4)GlcNAc(b1-3)Gal(b1-4)GlcNAc(b1-2)Man(a1-3)[Gal(b1-4)GlcNAc(b1-3)Gal(b1-4)GlcNAc(b1-3)Gal(b1-4)GlcNAc(b1-3)Gal(b1-4)GlcNAc(b1-3)Gal(b1-4)GlcNAc(b1-2)Man(a1-6)]Man(b1-4)GlcNAc(b1-4)[Fuc(a1-6)]GlcNAc
Summary of the method: as §1

[13] = target: Gal(b1-4)GlcNAc(b1-3)Gal(b1-4)GlcNAc(b1-3)Gal(b1-4)GlcNAc(b1-3)Gal(b1-4)GlcNAc(b1-3)Gal(b1-4)GlcNAc(b1-2)[Gal(b1-4)GlcNAc(b1-3)Gal(b1-4)GlcNAc(b1-3)Gal(b1-4)GlcNAc(b1-3)Gal(b1-4)GlcNAc(b1-3)Gal(b1-4)GlcNAc(b1-6)]Man(a1-6)[Gal(b1-4)GlcNAc(b1-3)Gal(b1-4)GlcNAc(b1-3)Gal(b1-4)GlcNAc(b1-3)Gal(b1-4)GlcNAc(b1-3)Gal(b1-4)GlcNAc(b1-2)Man(a1-3)]Man(b1-4)GlcNAc(b1-4)[Fuc(a1-6)]GlcNAc
Summary of the method: as §1

[14] = target: Gal(b1-4)GlcNAc(b1-3)Gal(b1-4)GlcNAc(b1-3)Gal(b1-4)GlcNAc(b1-3)Gal(b1-4)GlcNAc(b1-3)Gal(b1-4)GlcNAc(b1-3)Gal(b1-4)GlcNAc(b1-2)Man(a1-3)[Gal(b1-4)GlcNAc(b1-3)Gal(b1-4)GlcNAc(b1-3)Gal(b1-4)GlcNAc(b1-3)Gal(b1-4)GlcNAc(b1-3)Gal(b1-4)GlcNAc(b1-3)Gal(b1-4)GlcNAc(b1-2)Man(a1-6)]Man(b1-4)GlcNAc(b1-4)GlcNAc
Summary of the method: as §1

[15] = target: Gal(b1-4)GlcNAc(b1-3)Gal(b1-4)GlcNAc(b1-3)GalNAc
Summary of the method: as §1

[16] = target: Gal(b1-4)GlcNAc(b1-3)Gal(b1-4)GlcNAc(b1-3)[Gal(b1-4)GlcNAc(b1-3)Gal(b1-4)GlcNAc(b1-6)]GalNAc
Summary of the method: as §1

[17] = target: Gal(b1-4)GlcNAc(b1-3)Gal(b1-4)GlcNAc(b1-6)[Gal(b1-3)]GalNAc
Summary of the method: as §1

[18] = target: Gal(b1-4)GlcNAc(b1-3)Gal(b1-4)[Fuc(a1-3)GlcNAc(b1-6)]Gal(b1-4)Glc
Summary of the method: as §1

[19] = target: Gal(b1-4)GlcNAc(b1-3)Gal(b1-4)[Fuc(a1-3)]GlcNAc(b1-3)Gal(b1-4)[Fuc(a1-3)]GlcNAc
Summary of the method: as §1

[20] = target: Gal(b1-4)GlcNAc(b1-3)GalNAc
Summary of the method: as §1

[21] = target: Gal(b1-4)GlcNAc(b1-3)[Fuc(a1-3)GlcNAc(b1-6)]Gal(b1-4)Glc
Summary of the method: as §1

[22] = target: Gal(b1-4)GlcNAc(b1-3)[Gal(b1-4)GlcNAc(b1-6)]Gal(b1-4)GlcNAc
Summary of the method: as §1

[23] = target: Gal(b1-4)GlcNAc(b1-3)[Gal(b1-4)GlcNAc(b1-6)]GalNAc
Summary of the method: as §1

[24] = target: Gal(b1-4)GlcNAc(b1-3)[GlcNAc(b1-6)]Gal(b1-4)GlcNAc
Summary of the method: as §1

[25] = target: Gal(b1-4)GlcNAc(b1-6)Gal(b1-4)GlcNAc
Summary of the method: as §1

[26] = target: Gal(b1-4)GlcNAc(b1-6)GalNAc
Summary of the method: as §1

[27] = target: Gal(b1-4)GlcNAc(b1-6)[Gal(b1-3)]GalNAc
Summary of the method: as §1

[28] = target: Gal(b1-4)GlcNAc(b1-6)[Gal(b1-3)]GlcNAc
Summary of the method: as §1

[29] = target: Gal(b1-4)GlcNAc(b1-6)[Gal(b1-4)GlcNAc(b1-3)]GalNAc
Summary of the method: as §1

[30] = target: Gal(b1-4)GlcNAc6P
Summary of the method: as §1

B1: Epa1-NP (Candida glabrata), Q6VBJ0 (protein)
chain: MILNPALFLNKCVCIYTTLILLLLTNGGYATSSNDISLASKDPTTFPLGCSPDITTPKKGLSMELYSYDFRKKGSYPCWDAAYLDPNYPRTGYKSHRLLAKVDGVTGNINFYYHATKGCTPQLGHLPASYNYPKPLTMTNFTMLLYGYFRPKVTGFHTFTISADDLLFVNFGAGNAFDCCRRDSSADHFGNYQAYAIWGSKTAKDELTVHLDAGVYYPIRLFYNNREYDGALSFTFKTESNENTVSDFSEYFFSLDDTEEGCPGLISYDSSCASVKTSKIIGIDYHTETPNENLVPITKTIYHLGIPCTGTTTTPLCGSGFYDPLANKCVTINTSSTSSVTKTTSHTTSKEVSFHSSISSQKTLIPKSIPSPYGPIKSQSIPTEMETSSEISSSEYAFSDVISTPSHSPYTKKHSSLNSSSYTSTVIHSLTSYSISQGIFSTSLSEQNITSKSSTDKFSTATSMSNNITQSSIIISQFSTNNENYTTTSMHTSSDKISTETLNNSISTTTSILFSNSSTILKNNTTIISSDKDTHYHPVNPTIVCSTNKTEIICASITQPSISNSNNHWSSSVLKFNSTTVRSTLPSSAGSNETSINVPFSSSTESNTSTSSTSTSNSKMVRSTLPSSAGSNETSISVPFSSSTESNTSTSSTSTSNSKMVRSTLPSSAGSNETSINVPFSSSTESNTSTSSTSTSNSKTVRSTPFSSAGIIMTSLSQRNNKSASSYASSNSKCYNTADSCRKVHSTPSYLLTSSYTSEGVDYDCSLVSTKLKINDTNCVNNKHTTKSCLKTSVTTTIPTLEIKTARKSSSNTIGLHSYPTSSPNKSISSAPIIGYISSFKTIKTASPSYQTSDLTTITTITSLNNPGSTAVENTHESNDKSRKTSSNDISSKHSVIKETKDAVESSNKSHQTNTLKCSSIIIASSSHNSYESLGGTTLTLTLSKVYSPQNNDTLPFLEISEVNPSRTVLPESSKMMQYLTSTEERNKTARNTIATNIVSISTFHFEGEGNAIRMGYTQLLLMLIGIIVMNIGT
[1]
  glycan array binding signal (z-score): 1.63
[2]
  glycan array binding signal (z-score): 1.54
[3]
  glycan array binding signal (z-score): 2.48
[4]
  glycan array binding signal (z-score): 0.443
[5]
  glycan array binding signal (z-score): 1.13
[6]
  glycan array binding signal (z-score): 1.64
[7]
  glycan array binding signal (z-score): 2.81
[8]
  glycan array binding signal (z-score): 0.868
[9]
  glycan array binding signal (z-score): 1.25
[10]
  glycan array binding signal (z-score): 1.61
[11]
  glycan array binding signal (z-score): 1.22
[12]
  glycan array binding signal (z-score): 0.887
[13]
  glycan array binding signal (z-score): 1.3
[14]
  glycan array binding signal (z-score): 1.3
[15]
  glycan array binding signal (z-score): -0.144
[16]
  glycan array binding signal (z-score): 1.2
[17]
  glycan array binding signal (z-score): 1.37
[18]
  glycan array binding signal (z-score): -0.216
[19]
  glycan array binding signal (z-score): 0.29
[20]
  glycan array binding signal (z-score): 0.08
[21]
  glycan array binding signal (z-score): -0.106
[22]
  glycan array binding signal (z-score): 1.54
[23]
  glycan array binding signal (z-score): 1.37
[24]
  glycan array binding signal (z-score): 0.487
[25]
  glycan array binding signal (z-score): 2.34
[26]
  glycan array binding signal (z-score): 0.743
[27]
  glycan array binding signal (z-score): 2.73
[28]
  glycan array binding signal (z-score): 2.48
[29]
  glycan array binding signal (z-score): 1.66
[30]
  glycan array binding signal (z-score): -0.287
